# Results: PubChem BioAssay AID2546 (National Center for Advancing Translational Sciences (NCATS), 2010)
# The whole screen tested about 310,000 compounds, of which about 11,000 (3.5%) were called active. The shares of active, inactive and inconclusive entries below differ from those in the screen. Calls follow the shape of the dose curve; as a rule, active = well fitted inhibition curve with a large enough effect; inconclusive = small, poorly fitted or top-dose-only effect, or effect the other way; inactive = flat fitted curve, though single readings scatter. Potencies of inconclusive entries are left out as doubtful fits.
# Experiment: VP16 counterscreen qHTS for inhibitors of ROR gamma transcriptional activity;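 also: Gal4-VP16 expression switched on by copper sulfate through the metallothionein promoter; nearly all actives have a fitted effect of over 50% in size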
# Settings: Drosophila S2 Gal4-VP16 UAS-luciferase, luminescence, 20 h; activity, negative = inhibition: at 53.6 µM (top of the series)
# % is scaled to controls: 0 for no effect and ±100 for the full control effect; potency is read from the fitted curve at half-maximal effect; tags tell the direction and shape of the fitted curve.
Structure (SMILES),Potency,"activity, negative = inhibition"
Cc1cnc(C(=O)NCc2ccc(Cl)cc2Cl)cn1,"inconclusive [activator, single point]",–
O=C1CCN(Cc2ccccc2)CCN1[C@H](CSc1ccccc1)Cc1ccccc1,–,inactive: 2%
COc1ccccc1-c1cc(C(F)(F)F)nc(S(=O)(=O)CCCC(=O)N2CCCCC2C)n1 (centres undefined),active: 15.8 µM,–
O=[N+]([O-])c1ccc(Oc2cccc3cccnc23)c([N+](=O)[O-])c1,"inconclusive [inhibitor, single point]",–
CC(NC(=O)CNC(=O)c1cccc(Cl)c1)c1ccccc1 (centres undefined),"inconclusive [inhibitor, single point]",–
CCOc1ccc(NC(=O)c2sc3nc(C)nc(N4CCOCC4)c3c2C)cc1,"inconclusive [inhibitor, single point]",–
COc1cc(NC(=S)NC(=O)c2ccc(C(C)(C)C)cc2)ccc1NC(=O)c1cccs1,active: 3.55 µM,–
N#Cc1ccc(/C=C/C(=O)c2ccco2)cc1,"inconclusive [inhibitor, single point]",–
Cc1ccccc1NC(=S)NCc1ccc2[nH]c3c(c2c1)CCCC3,active: 3.55 µM,–
COc1c(C(=O)Nc2ccc3[nH]c(=O)[nH]c3c2)cc2ccccc2c1Br,"inconclusive [inhibitor, single point]",–
COc1ccc(CN(Cc2cccn2C)S(=O)(=O)c2cccc(C(F)(F)F)c2)cc1,–,inactive: 1.92%
CCCc1cc(=O)oc2c3c(cc(OCC(=O)N4CCC[C@H]4C(=O)O)c12)OC(C)(C)CC3,–,inactive: -7.05%
CCn1cc[n+](C)c1P(c1ccccc1)c1ccccc1,"inconclusive [inhibitor, single point]",–
Cc1ccccc1C(=O)Nc1nnc(-c2ccc(F)cc2)o1,active: 0.447 µM,–
COc1ccc(-c2nc3cnc(N(C)C)nc3n(C)c2=O)cc1,–,inactive: 20%
COc1ccc(/C=C/c2nnc(NC(=O)CSc3ccc(C)cc3)s2)cc1,"inconclusive [inhibitor, single point]",–
O=C1/C(=C/c2ccccc2)NC(=S)N1C(c1ccccc1)c1ccccc1,–,inactive: -7.26%
CC1CCc2nc(NC(=O)Nc3ccc4c(c3)OCO4)sc2C1 (centres undefined),–,inactive: 7.15%
COCCN(C(=S)Nc1ccc(OC)cc1)C(C)c1cccs1 (centres undefined),"inconclusive [inhibitor, single point]",–
Cc1cccc(C(=O)Nc2nnc(-c3cccnc3)o2)c1,active: 1.26 µM,–
CCCCc1ccc(NC(=S)Nc2ccc(Cl)c(S(=O)(=O)N(C)C)c2)cc1,"inconclusive [inhibitor, single point]",–
CC(=O)c1ccc(NC(=S)NC(=O)/C=C/c2ccccc2)cc1,–,inactive: -13.9%
O=C(O)Cc1sc(Nc2ccccc2)nc1-c1ccc(Cl)cc1,"inconclusive [activator, single point]",–
COc1cc(C(CC(=O)Nc2ccc(C)cn2)N2Cc3ccccc3C2=O)cc(OC)c1OC (centres undefined),–,inactive: -0.529%
CCOc1ccccc1OCCC(=O)Nc1ccc(F)c(Cl)c1,"inconclusive [activator, single point]",–

Structure (SMILES),Potency,"activity, negative = inhibition"
O=S(=O)(c1ccc(Cl)cc1)N1CCCC1c1nc(-c2ccc(Cl)cc2)no1 (centres undefined),"inconclusive [inhibitor, single point]",–
Cc1nc(Nc2cnc(/C=C/c3cc(C(=O)Nc4cccc(C(F)(F)F)c4)ccc3C)cn2)cc(N2CCNCC2)n1,"inconclusive [inhibitor, single point]",–
Cc1ccc(N2C(=O)[C@@H]3[C@H](C2=O)C2CCCN2[C@@H]3C(=O)c2ccccc2)cc1 (some centres undefined),"inconclusive [inhibitor, single point]",–
CC(C)CNC(=S)NC1CCCC1,"inconclusive [inhibitor, single point]",–
Cc1cc(/C=N/NC(=O)c2ccccc2F)c(C)n1-c1ccccc1,"inconclusive [inhibitor, single point]",–
Cc1cccc(NC(=S)c2nc3ccccc3s2)c1,active: 5.01 µM,–
CCOc1ccc2[nH]c(=O)c(CN(CCCN3CCOCC3)Cc3nnnn3Cc3ccc(OC)cc3)cc2c1,–,inactive: -2.44%
C/C(=N\NC(=O)c1ccco1)c1ccc(NC(=O)c2ccccc2)cc1,"inconclusive [inhibitor, partial curve]",–
COc1cccc(CNc2cnc3ccccc3c2)c1O,active: 10 µM,–
COc1ccc(/C=C2\SC(=O)N(CC(=O)Nc3cccc(C)c3)C2=O)cc1O,active: 17.8 µM,–
CC(C)C[C@H](NC(=O)c1nc[nH]c1C(=O)N1CCC(C)CC1)C(=O)OCc1ccccc1,"inconclusive [inhibitor, single point]",–
Cc1c(Cl)cnc(NC(=O)COC(=O)c2ccc(S(=O)(=O)NCc3ccco3)cc2)c1Cl,"inconclusive [inhibitor, single point]",–
O=[N+]([O-])c1cccc(-c2noc(-c3ccco3)n2)c1,"inconclusive [activator, partial curve, poor fit]",–
Cc1cc(-c2n[nH]c(=S)n2/N=C/C=C/c2ccccc2)n[nH]1,"inconclusive [activator, single point]",–
COc1ccc(C(=O)NNC2CC(=O)N(Cc3ccc(Cl)cc3)C2=O)cc1OC (centres undefined),active: 7.08 µM,–
CC(=O)Nc1ccc(S(=O)(=O)Oc2ccccc2N2CCCCC2)cc1,"inconclusive [inhibitor, single point]",–
COc1ccc(CCn2c(SCC(=O)Nc3cc(C)on3)nc3ccccc3c2=O)cc1OC,–,inactive: -0.0569%
Cc1ccccc1Cn1cc(S(=O)(=O)CC(=O)Nc2nccs2)c2ccccc21,"inconclusive [inhibitor, single point]",–
COc1ccc2oc(=O)c(/C(C)=N/NC(=O)c3ccncc3)cc2c1,"inconclusive [inhibitor, single point]",–
CC(=O)n1cc([C@H]2C=C(C(=O)N3CCN(Cc4ccc5c(c4)OCO5)CC3)O[C@@H](OCCCCO)C2)c2ccccc21,–,inactive: -12.1%
COc1ccc(OC)c(NC(=O)CSc2nc3ccccc3c3nc4ccccc4n23)c1,"inconclusive [inhibitor, partial curve, poor fit]",–
O=C(CNS(=O)(=O)c1cccs1)NCc1ccccc1,–,inactive: 1.16%
COc1ccc(/C=N/Nc2cc(N(C)C)nc(N(C)C)n2)cc1,–,inactive: 2.56%
COc1ccc(NC(=O)/C(C#N)=C\c2ccc(-c3cccc(C(=O)O)c3C)o2)cc1,"inconclusive [inhibitor, full curve, poor fit]",–
c1ccc2sc(Sc3ncnc4sccc34)nc2c1,"inconclusive [inhibitor, single point]",–

Structure (SMILES),Potency,"activity, negative = inhibition"
CCCCCCC1/C(=N\NC(=O)c2ccccc2)CCC1C(=O)OC (centres undefined),"inconclusive [inhibitor, single point]",–
O=C(N/N=C/c1ccccn1)c1ccc([N+](=O)[O-])cc1Cl,"inconclusive [inhibitor, single point]",–
O=C(CCCc1nc(-c2ccc(Cl)cc2)no1)NC1CCCCC1,"inconclusive [inhibitor, partial curve]",–
O=C(NC(=S)N(CCc1ccccc1)CCc1ccccc1)c1ccco1,active: 0.0447 µM,–
CCc1nn(CC(=O)NCCc2ccc(OC)cc2OC)c(=O)c2cc3occc3n12,–,inactive: 0.851%
O=C(NNC(=O)c1ccccc1Cl)c1cccs1,"inconclusive [activator, single point]",–
CN(c1ccc2nc3ccccc3c(=O)n2n1)C1CCCCC1,active: 1.12 µM,–
O=C(Nc1ncc(Br)s1)C(Cc1ccccc1)n1cccc1 (centres undefined),"inconclusive [inhibitor, single point]",–
N#C/C(=C\c1ccc(OCc2ccccc2)cc1)C(=O)Nc1ccc(C(=O)O)cc1,–,inactive: 6.24%
CCn1cnc2cc(NCc3nc4ccccc4n3Cc3ccccc3)ccc21,"inconclusive [inhibitor, single point]",–
Cc1ccccc1OCC(=O)NNC(=S)NC(=O)c1ccco1,"inconclusive [inhibitor, single point]",–
O=C(Nc1ccc(Br)cc1F)c1ccc2c(c1)OCCO2,"inconclusive [inhibitor, partial curve]",–
CCCCC(=O)NC(c1cccc([N+](=O)[O-])c1)c1c(OC(C)=O)ccc2ccccc12 (centres undefined),"inconclusive [inhibitor, single point]",–
Cc1csc2ncnc(NCCc3ccccn3)c12,active: 10 µM,–
CC(C)(C)NC(=O)COC(=O)c1snc(C(=O)NC2CCCCC2)c1N,active: 5.62 µM,–
CCOC(=O)c1c(/N=C/N(C)C)sc(C(=O)OC)c1C,"inconclusive [inhibitor, single point]",–
Nc1nonc1NC(=O)CSc1nc2ccccc2s1,–,inactive: 19.8%
CCc1ccc(NC(=O)c2noc3c2CCC3)cc1,"inconclusive [inhibitor, single point]",–
CC/C(=N/Nc1ccccc1Cl)c1cnnc(-c2ccccc2)n1,–,inactive: -19.4%
CCn1c(-c2cccn(Cc3ccccc3)c2=O)n[nH]c1=S,–,inactive: 8.44%
C/C=C(\C)C(=O)OC(C)(C)[C@H]1Cc2cc3ccc(=O)oc3cc2O1,–,inactive: 14.7%
COc1ccc(Oc2cccc(Cl)c2CNC(=O)CCC(=O)O)cc1,–,inactive: -2.99%
CC1CCC(NC(=O)C(=O)Nc2ccc3c(c2)OCO3)CC1 (centres undefined),"inconclusive [inhibitor, single point]",–
CNC(=S)NNC(=O)CNc1ccc(C)c(Cl)c1,active: 12.6 µM,–
